In PubChem BioAssay AID1671194 (National Center for Advancing Translational Sciences (NCATS), 2021):
Hit rate of the full screen: of about 140,000 compounds, about 240 (0.17%) were called active. Inconclusive results, whose numbers are uncertain, are shown with a selection of clear calls. Calls follow the shape of the dose curve; as a rule, active = well fitted inhibition curve with a large enough effect; inconclusive = small, poorly fitted or top-dose-only effect; inactive = no such curve, though single readings can be large or run the other way. Where the call is inconclusive, the potency comes from a doubtful curve fit.

Assay: Primary qHTS assay for inhibitors of alpha-synuclein gene (SNCA) expression; also: nearly all actives have a fitted effect of over 45% in size;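 as to activity change, negative = inhibition: plate controls were DMSO cells for no effect and cell-free wells for full effect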
Details: HEK-293 SNCA-luciferase knock-in, luminescence, 24 h; activity change, negative = inhibition: at 57.2 µM (top of the series) unless noted
Potency is read from the fitted curve at half-maximal effect; tags tell the direction and shape of the fitted curve.

Activity change, negative = inhibition, inactive:
O=C1NCc2ccccc2CC12CCCN(Cc1cccc(OC(F)(F)F)c1)C2 (stereo not drawn) 2.08%
CC[C@H]1CN(C(=O)Nc2cccc(C(F)(F)F)c2)CC[C@H]1CC(=O)NCc1cccc2ccccc12 27%
Nc1ccccc1CN1CCCC2(Cc3ccccc3CNC2=O)C1 (stereo not drawn) 2.72%
Cc1oc2c(c(C)cc3oc(=O)c(CC(=O)NCCc4ccccc4F)c(C)c32)c1C 17%
O=C(C1CC=CC1)N1CCN(C(=O)N2CC3CC(C2)[C@H]2CCCC(=O)N2C3)CC1 (stereo partly drawn) 0.0281%
Cc1cccc2[nH]c(C3CCN(C(=O)C4CC5(CCNCC5)CN4)CC3)nc12 (stereo not drawn) -4.84%
CC(C)c1ccc(CNC(=O)c2cc3n(n2)CC(c2ccc4c(c2)OCO4)OC3)cc1 (stereo not drawn) -20.3%
O=C(NCc1ccccn1)C1CCc2nnc(-c3cccc(C(F)(F)F)c3)n21 (stereo not drawn) 12.4%
O=C(Nc1ccc2oc(-c3ccccc3F)nc2c1)c1ccccc1Cl -4.4%
CN1CCN(c2nccc3c(=O)cc(N(C)C4CCOCC4)oc23)CC1 4.89% [at 87.6 µM]
Cc1ccc2c(c1)N(CCC(=O)NCc1ccc(F)cc1)C(=O)CO2 -7.38%
COCCNc1nc(-c2ccc(C(=O)N(C)C)cc2)nc2ccccc12 2.16%
O=C(Cc1ccc(F)cc1)N1CCN(C(=O)c2nc3cccnc3n(C3CCCC3)c2=O)CC1 38%
CCCC(=O)Nc1cc(C2CC2)nn1-c1ccccc1 8.92% [at 87.6 µM]
CCCn1cc(CNC(=O)c2cc3c(s2)CCC(C)C3)cn1 (stereo not drawn) 39.1%
COc1ccccc1OCCNC(=O)C1CCc2ncc(-c3ccc(F)cc3)n2C1 (stereo not drawn) -13.1%
CN1c2cc(C(=O)Nc3cccc(Br)c3)ccc2C(=O)N2CCCCC21 (stereo not drawn) -7.35%
Cc1ccc(NC(=O)Cn2ccn3nc(-c4ccccc4)c(CO)c3c2=O)c(C)c1 -17.7%
COCCN1CCC2(CCC1=O)CCN(C(=O)NC1CCCCC1)CC2 0.779%

Potency, inconclusive:
O=C(NCc1ccc(F)cc1)C1CCN(C(=O)c2ncn3c2COC(c2ccc(Cl)cc2)C3)CC1 (stereo not drawn) 3.98 µM [inhibitor, single point]
NCc1ccccc1-c1ccsc1 14.1 µM [inhibitor, partial curve, poor fit]
CCOC(=O)C1CCN(c2ncnc3c2c(-c2ccccc2)cn3-c2cccc(C)c2)CC1 7.08 µM [inhibitor, single point]
Cc1ccccc1-n1c(SCC(=O)Nc2ccc(Cl)cc2F)nnc1-c1cc2occc2n1C 2.51 µM [inhibitor, single point]
Cc1ccc(Cl)cc1N1CCN(C(=O)c2cnc(N3CCOCC3)c3ccccc23)CC1 20 µM [inhibitor, partial curve, poor fit]
CCOc1ccc(-n2c(Cc3ccccc3)nnc2SCc2nc(-c3ccccc3OC)no2)cc1 7.08 µM [inhibitor, single point]
Cc1cn2c(=O)cc(COC(=O)c3cccc(NC(=O)COc4ccccc4Cl)c3)nc2s1 2 µM [inhibitor, full curve, poor fit]
CCc1ccc(C2c3c(-c4ccccc4O)n[nH]c3C(=O)N2Cc2ccncc2)cc1 (stereo not drawn) 20 µM [inhibitor, single point]
Cn1cnc(S(=O)(=O)NCCc2noc(-c3ccccc3)n2)c1 7.08 µM [inhibitor, single point]
CC(C)c1cccc(NC(=O)CN2C(=O)C(c3ccccc3)=NC23CCCC3)c1 12.6 µM [inhibitor, partial curve, poor fit]
COc1ccc(-c2[nH]nc3ncc(-c4ccc(OC)nc4)nc23)c(C)c1 39.8 µM [inhibitor, single point]
CCNC(=O)c1coc(COc2ccc3c(c2)C(c2cccc(C)c2)N(C(=O)C2CC2)CC3)n1 (stereo not drawn) 39.8 µM [inhibitor, single point]
CCOc1ccc(-c2nc(CSCC(=O)N3CCN(c4cccc(C(F)(F)F)c4)CC3)c(C)o2)cc1 31.6 µM [inhibitor, partial curve, poor fit]
O=c1[nH]c(C2CCCN(Cc3cccc(-c4ccc(F)cc4F)c3)C2)nc2ccc(F)cc12 (stereo not drawn) 11.2 µM [inhibitor, partial curve]
CCN(C(=O)CCC(=O)N1CCc2nc3cc(-c4ccc(OC)cc4)[nH]n3c(=O)c2C1)c1ccccc1 0.891 µM [inhibitor, full curve, poor fit]
COc1cccc(N2CCN(C(=O)c3ccc4c(=O)n(CCc5ccccc5)c(=O)[nH]c4c3)CC2)c1 39.8 µM [inhibitor, single point]
Cc1ccc(C)c(NC(=O)N(C)CC2CCOC2)c1 (stereo not drawn) 20 µM [inhibitor, single point]
COc1ccccc1CNS(=O)(=O)c1cc(C(=O)Nc2cccc(C(F)(F)F)c2)ccc1F 39.8 µM [inhibitor, single point]
O=C(Cc1n[nH]c(=O)c2ccccc12)NC1CCCc2c1[nH]c1c(Cl)cccc21 (stereo not drawn) 4.47 µM [inhibitor, full curve]
Cc1ccc(S(=O)(=O)N2CCN(C3CCN(CCC(C)C)C3=O)CC2)cc1Cl (stereo not drawn) 39.8 µM [inhibitor, single point]
Cc1cccc(N2C(=O)CSC23C(=O)N(Cc2cccc(F)c2)c2ccccc23)c1 (stereo not drawn) 20 µM [inhibitor, partial curve, poor fit]
COc1ccc(NC(=O)Cn2ccn3nc4c(c3c2=O)CCCCC4)cc1OC 0.708 µM [inhibitor, single point]
COc1ccc(NC(=O)Cn2c(N(C)Cc3ccccc3)nc(C)cc2=O)cc1OC 39.8 µM [inhibitor, single point]
CCc1ccc(NC(=O)Cn2c(=O)c(-c3ccccc3NC(C)=O)nc3ccccc32)cc1 0.178 µM [inhibitor, single point]
CCc1nc(-c2c3n(c(=O)n(CC(=O)Nc4ccccc4Cl)c2=O)CCCCC3)no1 12.6 µM [inhibitor, single point]
O=C(Nc1ccccc1)[C@@H]1C[C@@H](c2ccc(F)cc2)N([S+](=O)([O-])c2ccccc2)C1 22.4 µM [inhibitor, partial curve, poor fit]
CC(=O)N1CCN(c2cc(-c3noc([C@@H]4CCCN4Cc4ccccc4C)n3)ccn2)CC1 39.8 µM [inhibitor, single point]
CNC(=O)CCn1ncc2cc(OC3CCc4cccc(-c5cccc(F)c5)c43)ccc21 (stereo not drawn) 56.2 µM [inhibitor, single point]
Cc1ccc(N2CCC(N[C@@H]3CC[C@@H](N)C3)CC2)cc1Cl 39.8 µM [inhibitor, single point]
CC(=O)c1ccc(C(=O)N(CCCN(C)C)c2nc3c(C)c(C)ccc3s2)cc1 39.8 µM [inhibitor, single point]
O=C(CN(c1ccc(Cl)c(C(F)(F)F)c1)S(=O)(=O)c1ccccc1)N1CCc2ccccc2C1 7.08 µM [inhibitor, single point]
CCOC(=O)N1CCc2c(sc(NCc3ccc(OCC)cc3)c2C(=O)Nc2ccc(OC)cc2OC)C1 1 µM [inhibitor, full curve, poor fit]
CCOC(=O)c1cnc2c(C)c(Cl)ccc2c1Nc1ccc(C)cc1C 20 µM [inhibitor, single point]
COc1cccc(-c2cccc(C(=O)N3CCCC3C(=O)N3CCCCC3)c2)c1 (stereo not drawn) 10 µM [inhibitor, partial curve]
COc1ccc(CNS(=O)(=O)c2cc(C(=O)Nc3cc(Cl)cc(Cl)c3)ccc2F)cc1 44.7 µM [inhibitor, single point]
CCc1nc2c(c(-c3ccc(Cl)cc3)n1)CN(Cc1ccccc1)CC2 39.8 µM [inhibitor, single point]
COCCCNC(=O)N1CCN(C(=O)N2CC3CC(C2)[C@H]2CCCC(=O)N2C3)CC1 (stereo partly drawn) 39.8 µM [inhibitor, single point]
CCOc1ccccc1NC(=O)C(Cc1ccccc1)NS(=O)(=O)c1ccc(Br)s1 (stereo not drawn) 28.2 µM [inhibitor, single point]
CN1CCN(C(c2ccc(F)cc2)c2sc3nc(-c4ccco4)nn3c2O)CC1 (stereo not drawn) 28.2 µM [inhibitor, single point]
O=C1NCc2ccccc2CC12CCN(Cc1ccc(-c3ccccc3)cc1)C2 (stereo not drawn) 22.4 µM [inhibitor, partial curve, poor fit]
CCN1c2cc(C(=O)Nc3ccc(Oc4ccccc4)cc3)ccc2C(=O)N2CCCCC21 (stereo not drawn) 39.8 µM [inhibitor, partial curve, poor fit]
COc1cc(N2CCC(CO)(Cc3ccccc3C(F)(F)F)CC2)ncn1 14.1 µM [inhibitor, partial curve, poor fit]
O=C(NCc1ccc(F)cc1)c1ccc2nnc(-c3cccc(C(F)(F)F)c3)n2c1 39.8 µM [inhibitor, single point]
CCS(=O)(=O)N1CCCCC(NC(=O)c2scc3c2OCCO3)C1 (stereo not drawn) 20 µM [inhibitor, partial curve, poor fit]
